Data from PubChem BioAssay AID1508624 (National Center for Advancing Translational Sciences (NCATS), 2021).
Out of some 48,000 compounds screened, about 120 (0.25%) were called active. Roughly 4% stayed inconclusive and do not appear here. Calls follow the shape of the dose curve; as a rule, active = well fitted activation curve with a large enough effect; inconclusive = small, poorly fitted or top-dose-only effect, or another doubt; inactive = no such curve, though single readings can be large or run the other way. This is one part of the list.

Test: Primary qHTS for Identification of Small Molecule Activators of Huntingtin-Antisense Promoter Activity; also: nearly all actives have a fitted effect of over 55% in size
Conditions: HEK293 HTT-AS promoter firefly luciferase reporter (activity 0% = vehicle and -100% = no light), 24 h; series mostly up to 57.5 µM; activity change, positive = activation: at the top concentration
In short: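 Firefly luciferase readout (Dual-Glo, 10 min RT) after 24 h, 37 °C compound exposure (final up to 57.5 uM) of HEK293 reporter cells cultured 24 h beforehand; PTC124 at 50 uM final as control inhibitor; activity scaled vehicle 0%, zero RLU -100%.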

Activity change, positive = activation, inactive:
Cc1ccc(NC(=O)C2CCN(c3nc4ccccc4[nH]3)CC2)c(C)c1 -7.74%, COCCN1C(=O)c2[nH]nc(-c3cc(C)ccc3O)c2C1c1ccc(C(C)C)cc1 (stereo unspecified) -13.7%, CCc1ccccc1NC(=O)c1cc(S(=O)(=O)N2CCCC2)cn1C -6.37%, Cc1cccc(N2CCN(C(=O)CCc3c(C)nc4ncnn4c3C)CC2)c1C -23.6%, COc1ccccc1NC(=O)NCCN1CCN(c2cccc(Cl)c2)CC1 -8.97%, CC(C)c1cccc(C(C)C)c1NC1=NS(=O)(=O)c2ccccc21 -12.4%, Cc1ccc(CNS(=O)(=O)c2cc3c(cc2C)NC(=O)CO3)cc1 -21.5%, COc1ccc(OC)c(NC(=O)CN2C(=O)COc3ccc(S(=O)(=O)NC4CCCC4)cc32)c1 -15.8%, CN(CC(=O)Nc1cccc(C(F)(F)F)c1)S(=O)(=O)c1cccs1 -17%, O=C(Cn1c(-c2cccs2)cc2ccccc21)NCCc1ccc(Cl)cc1 -23.3%, COC(=O)C(C)Sc1ncnc2c1c(-c1ccccc1)cn2-c1ccc(F)cc1 (stereo unspecified) -19.3%, Cc1cccc(C)c1-n1ncc(C(=O)N2CCN(c3ccccc3)CC2)c1C1CCN(C(=O)OC(C)(C)C)CC1 -28.7%, CCOc1ccccc1NC(=O)c1cc2c(=O)oc3ccccc3c2s1 0.43%, O=C(c1ccc(CSc2nc3ccncc3n2Cc2cccc(F)c2)cc1)N1CCCCCC1 -19.8%, Cc1cncn1CCc1nc2c3ccccc3nc(SCC(=O)Nc3cccc(Cl)c3)n2n1 -92.5%, CCCCN(CC)CCNC(=O)Cn1cc2c(n1)-c1c(oc(C(=O)N3CCCC3)c1C)CC2 -13.5%, CN(C(=O)CSc1cn(CC(=O)N2CCOCC2)c2ccccc12)c1ccccc1 2.61%, CC(=O)N1CCCc2cc(S(=O)(=O)N3CCC(C(=O)NCc4cccc(C)c4)CC3)ccc21 -20%, COc1cccc(Cn2c(=O)n(Cc3ccco3)c(=O)c3oc4ccccc4c32)c1 -12%, CCCOc1cccc(C(=O)N(Cc2ccc(C)o2)C2CCS(=O)(=O)C2)c1 (stereo unspecified) -13.1%, COCCNc1sc(S(=O)(=O)c2ccc(C)cc2)nc1S(=O)(=O)c1ccc(C)cc1 -4.68%, CC(=O)Nc1ccc(NC(=O)CSc2nccn2C)cc1 -0.569%, N#Cc1ccc(C(c2ccc(C#N)cc2)n2cncn2)cc1 -21.6%, CCCN(C(=O)c1noc2c1COc1ccc(C)cc1-2)c1ccc(Cl)c(Cl)c1 -17.8%, CCOC(=O)c1cc2c(=O)n3ccccc3nc2n(CC(C)C)c1=NC(=O)c1c(-c2c(F)cccc2Cl)noc1C 5.34%, COC(=O)c1ccccc1NC(=O)c1c(NC(=O)c2ccco2)sc2c1CCC(C(C)(C)C)C2 (stereo unspecified) -9.2%, COc1cc(NS(=O)(=O)c2ccc3[nH]c4c(c3c2)CCCCCC4)cc(OC)c1 -27.7%, Cc1ccc(NC(=O)CC(C)S(=O)(=O)c2ccc3c(c2)NC(=O)CO3)cc1Cl (stereo unspecified) -16.1%, Cc1nc2nc(SCC(=O)NCc3ccccc3Cl)nn2c(C)c1Cc1ccccc1 -2.61%, CCc1nc(-c2cc(S(=O)(=O)N3CCN(c4ccccc4OC)CC3)ccc2OC)no1 -11.9%, CCOC(=O)Cn1c(=O)c2c(nc3n2CCN3c2ccc(CC)cc2)n(C)c1=O -12.3%, COc1cc(Cl)c(C)cc1Nc1ncnc2c1nc1n2CCCC1 7.94%, COc1ccc(Cl)cc1NC(=O)CN1C(=O)COc2ccc(S(=O)(=O)NC3CCCC3)cc21 -16.5%, Cc1ccc(-c2nnc(Nc3ccc(O)cc3)c3ccccc23)cc1S(=O)(=O)N1CCOCC1 -48%, CCOC(=O)c1cc(-c2ccccc2)n(-c2cccc(C(=O)Nc3ccc(OCC)cc3)c2)c1C -29.3%, COc1cccc(NS(=O)(=O)c2ccc(-c3cc(C)no3)s2)c1 0%, CCn1c(CNC(=O)C23CC4CC(CC(C4)C2)C3)nnc1SCC(=O)Nc1ccccc1 -16.3%, Cc1ccc(C)c(OCCn2cc(C(=O)c3ccco3)c3ccccc32)c1 -11.7%, COc1ccc(-c2nc(CNS(=O)(=O)c3ccccc3)cs2)cc1 -20.3%, COc1cccc(CNC(=O)c2cc3c(s2)-c2c(C)cccc2OC3)c1 -10%, COc1c2occc2cc2ccc(=O)oc12, O=C(Oc1ccc(F)cc1)c1nc(SCc2ccccc2F)ncc1Cl -7.14%, Cc1oc2ncn(C)c(=O)c2c1C(=O)N1CCN(c2ccccc2)CC1 -0.365%, COc1ccccc1C(=O)NC1(C(F)(F)F)C(=O)Nc2c1c(=O)[nH]c(=O)n2-c1ccccc1 (stereo unspecified) -10.3%, Cn1c(=O)c2c([nH]c(=O)n2Cc2ccc(Cl)cc2Cl)n(C)c1=O 0.737%, Cc1ccc2c(c1)-c1nc(-c3ccc4c(c3)NC(=O)CO4)cc(-c3ccc(Cl)cc3)c1CO2 0.847%, COc1ccc2c(OCc3nnc4ccc(-c5ccccc5)nn34)ccnc2c1 1.62%, CC1CCCN(CCCNC(=O)c2cn(C)c3ccc(S(=O)(=O)N(C)C4CCCCC4)cc3c2=O)C1 (stereo unspecified) -5.29%, Cc1ccc(NS(=O)(=O)c2ccc3nc(-c4ccccc4)[nH]c3c2)c(Cl)c1 -31.8%, COc1ccccc1CNC(=O)c1ccc2c(c1)N(Cc1cccc(Cl)c1)C(=O)c1ccccc1S2(=O)=O -14.5%, COc1ccc(Cn2c(C(=O)O)c(CNCCc3cccs3)c3ccc(C)cc32)cc1 -34.2%, Cc1ccc(Cn2c(C(=O)O)c(CNC3CCCCCC3)c3ccc(C)cc32)cc1 -12.8%, CC(=O)c1ccc(NC(=O)Cn2c(=O)c3cccn3c3ccccc32)cc1 -23.7%, Cc1ccc(NC(=O)Cn2c(=O)n(CCC(=O)N3CCc4ccccc4C3)c(=O)c3ccccc32)cc1 -3.12%, Cc1oc2ncn(CC(C)C)c(=O)c2c1C(=O)Nc1cc(F)ccc1F -2.03%, CC(C)(C)C(=O)NCCc1nc2ccccc2n1CCCCOc1ccc(Cl)cc1 -26.2%, COc1ccc(-n2nc3c(N4CCCC(C(=O)NCc5cccc(F)c5)C4)nnc(C)c3c2C)cc1 (stereo unspecified) -23.4%, O=C(NN1CCCC1)NS(=O)(=O)c1ccc(Cl)cc1 -3.49%, CCOc1ccc(CNC(=O)CSc2nnc(C)c3c(C)n(-c4ccccc4)nc23)cc1 -21.9%, Cc1ccccc1CCNC(=O)c1ccc2c(c1)c(C)c(C)n2Cc1ccccc1 -23.6%, CC(C)CN(CCCNC(=O)CN1C(=O)CSc2ccc(S(=O)(=O)N3CCOCC3)cc21)CC(C)C -2.97%
